Data as given in the supplement of paper PMC3334620.
In all, about 33,000 sequences were measured (“E-score (-0.5 to 0.5)”: median about -0.01, highest 2% from about 0.26 on). Some of the results follow.

The sequences below were run against Ste12 (UniProt P13574) (assay: PBM E-score (8-mer binding enrichment) (E-score (-0.5 to 0.5)); higher = stronger / more preferred TF binding; most listed sequences are background and not binding sites). Settings: protein concentration: 200 nM; construct: GST-DNA-binding domain.
Experimental: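 Universal 'all 10-mer' protein binding microarrays (Agilent AMADID 015681) probed with GST-tagged S. cerevisiae TFs (full-length or DBD) made by in vitro transcription/translation (PURExpress), about 100-200 nM. Bound TF was detected with fluorescent anti-GST. Each ungapped 8-mer (which stands for itself and its reverse complement) is scored by the PBM enrichment score (E-score), a modified Wilcoxon-Mann-Whitney statistic from -0.5 to +0.5, computed with the Universal PBM Analysis Suite. Scale: above 0.35 generally sequence-specific binding.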
With AAGGTGAC the “PBM E-score” value was -0.172. For GTCGCAAC, the “PBM E-score” value was 0.194. CTAACATA was tested, and the “PBM E-score” value was 0.0668. With GGATAATA the “PBM E-score” value was 0.195. GTGCCTCA was tested, and the “PBM E-score” value was -0.00805. For GGTGGAAA, the “PBM E-score” value was -0.076. CACAAAGA was tested, and the “PBM E-score” value was 0.111. In the case of GGCTTCGA, the “PBM E-score” value is reported as -0.0257. For ACGTAGAT, the “PBM E-score” value was 0.103. For GATTCCAC, the “PBM E-score” value was 0.133. AGGACCAC was tested, and the “PBM E-score” value was -0.267. With GTCCTTTA the “PBM E-score” value was -0.00228. With GGCGGGAC the “PBM E-score” value was 0.132. For ACCTCGTC, the “PBM E-score” value was 0.0514. In the case of CGCGCCAG, the “PBM E-score” value is reported as 0.0273. For GGTAAAAA, the “PBM E-score” value was 0.191. GCTAAAGA was tested, and the “PBM E-score” value was 0.129. In the case of TCTGATAA, the “PBM E-score” value is reported as 0.0748. For TATCCAAA, the “PBM E-score” value was 0.0767. For AAGGACAC, the “PBM E-score” value was -0.0784. In the case of ACTGTCGC, the “PBM E-score” value is reported as -0.0231. CAATACTC was tested, and the “PBM E-score” value was 0.0738. In the case of ATGAGCTC, the “PBM E-score” value is reported as 0.0901. With CGATGGGC the “PBM E-score” value was -0.0527. With CTCTGTTC the “PBM E-score” value was 0.0445. In the case of CTAGAAAA, the “PBM E-score” value is reported as 0.122. CACGCGGC was tested, and the “PBM E-score” value was -0.101. For AGTCGTAA, the “PBM E-score” value was 0.16. For GCCACGGC, the “PBM E-score” value was -0.00283. GGGAGCAA was tested, and the “PBM E-score” value was -0.169. With GCTCCAGC the “PBM E-score” value was -0.00287. In the case of CCCAAGCA, the “PBM E-score” value is reported as 0.0648. CATACAGC was tested, and the “PBM E-score” value was -0.114. In the case of GAAGCTCC, the “PBM E-score” value is reported as -0.14. For CTCCATAC, the “PBM E-score” value was 0.171. ACACTAGG was tested, and the “PBM E-score” value was 0.0304. For GACGCTTA, the “PBM E-score” value was -0.0976. GCGCGTGA was tested, and the “PBM E-score” value was 0.0934. With AAAACCAC the “PBM E-score” value was 0.201. For GGGTACAC, the “PBM E-score” value was -0.192. CCTCTCTA was tested, and the “PBM E-score” value was -0.314. CTCTTGTA was tested, and the “PBM E-score” value was 0.0528. With GGCACGGA the “PBM E-score” value was -0.146. In the case of CCCCCGAA, the “PBM E-score” value is reported as -0.217. With AGCTGGCC the “PBM E-score” value was -0.0987. GATAGGGC was tested, and the “PBM E-score” value was -0.265. For GCGATTTA, the “PBM E-score” value was 0.0399. AAAGGAAT was tested, and the “PBM E-score” value was 0.108. With CATCCTAC the “PBM E-score” value was -0.105. AGCCACTG was tested, and the “PBM E-score” value was -0.0733. For GAATCTAA, the “PBM E-score” value was 0.0896. For GAGCCTCA, the “PBM E-score” value was 0.00214. For GGTTGCAC, the “PBM E-score” value was -0.109. In the case of TAGTCACA, the “PBM E-score” value is reported as 0.037. CTAAGGAG was tested, and the “PBM E-score” value was -0.207. With CCCGTATC the “PBM E-score” value was 0.0711. With GCCGGAAA the “PBM E-score” value was 0.0458. For CCGTTGTC, the “PBM E-score” value was 0.0456. For AAAATTGG, the “PBM E-score” value was 0.173. GGGCTCGA was tested, and the “PBM E-score” value was 0.0483. In the case of ACGGCTAT, the “PBM E-score” value is reported as -0.135. With CACGGCGC the “PBM E-score” value was -0.0235. For AACACAGA, the “PBM E-score” value was 0.0627. In the case of GAATTAAC, the “PBM E-score” value is reported as 0.00892. With CAGTAGAC the “PBM E-score” value was -0.0528. GGTGGTTA was tested, and the “PBM E-score” value was 0.0805. CTGGTTGC was tested, and the “PBM E-score” value was 0.251. With TACTCATA the “PBM E-score” value was -0.0743. For ATCGCCAC, the “PBM E-score” value was -0.0254. AGGATTAC was tested, and the “PBM E-score” value was 0.037. With CTTCCACA the “PBM E-score” value was -0.0803. With CCTAAAAC the “PBM E-score” value was 0.236. With ACGAGCTA the “PBM E-score” value was -0.313. In the case of GAAATCCC, the “PBM E-score” value is reported as 0.027. In the case of GGTCTGGA, the “PBM E-score” value is reported as -0.115. ATGTTAAG was tested, and the “PBM E-score” value was 0.0812. In the case of GAGCACTC, the “PBM E-score” value is reported as -0.0267. For GGACACCA, the “PBM E-score” value was 0.0136. With CTTGATAC the “PBM E-score” value was 0.0702. For GCCATAAC, the “PBM E-score” value was -0.164. AAGCGCAC was tested, and the “PBM E-score” value was -0.18. In the case of CAGGCGCC, the “PBM E-score” value is reported as 0.116. With CTGAGCCA the “PBM E-score” value was -0.00032. In the case of TGAAAGCA, the “PBM E-score” value is reported as 0.145. ACGATCAG was tested, and the “PBM E-score” value was -0.054. GCTCCAAC was tested, and the “PBM E-score” value was 0.0307. For GTAACCTA, the “PBM E-score” value was 0.164. For AACATCTC, the “PBM E-score” value was -0.0931. In the case of AAACTTTG, the “PBM E-score” value is reported as 0.217. GGCGTCAC was tested, and the “PBM E-score” value was 0.0698. GGGCCCTA was tested, and the “PBM E-score” value was -0.0582. In the case of AACGAAAC, the “PBM E-score” value is reported as 0.314. In the case of CAAGTAAC, the “PBM E-score” value is reported as 0.045. In the case of CGAGGCTA, the “PBM E-score” value is reported as -0.0806. In the case of CCCATTGA, the “PBM E-score” value is reported as 0.0714. In the case of GCCATCAC, the “PBM E-score” value is reported as -0.0789. ATGTATGA was tested, and the “PBM E-score” value was 0.138. With GCACTCTA the “PBM E-score” value was -0.112. With CAACTAAA the “PBM E-score” value was 0.00909. For AACGAGTT, the “PBM E-score” value was -0.0971. For AAGTGTCC, the “PBM E-score” value was -0.236. AGAATACT was tested, and the “PBM E-score” value was -0.0293. For AACTAGTA, the “PBM E-score” value was 0.0578. With CAACCAGA the “PBM E-score” value was -0.0395. AGCCTTGG was tested, and the “PBM E-score” value was -0.185. In the case of CCCAGAAG, the “PBM E-score” value is reported as -0.0684. GGCAACTA was tested, and the “PBM E-score” value was -0.139. ACGGGTAT was tested, and the “PBM E-score” value was 0.13. With CAACATCG the “PBM E-score” value was -0.00967. In the case of CGGATCAG, the “PBM E-score” value is reported as 0.0297. With GATAAACA the “PBM E-score” value was 0.096. In the case of ACATAGGG, the “PBM E-score” value is reported as -0.137. GCTTTACA was tested, and the “PBM E-score” value was -0.00619. For ATCTTTGC, the “PBM E-score” value was 0.19. For ACGTTTAA, the “PBM E-score” value was 0.0563. With CTCGTTAA the “PBM E-score” value was -0.0602. AATTCGGA was tested, and the “PBM E-score” value was 0.126. In the case of CAACGTTG, the “PBM E-score” value is reported as 0.0287. In the case of GGCGTCCA, the “PBM E-score” value is reported as -0.155. GCAAACAA was tested, and the “PBM E-score” value was 0.146. AGTCAAAC was tested, and the “PBM E-score” value was -0.121. With GCTCCGCA the “PBM E-score” value was -0.133. In the case of ATGCATTC, the “PBM E-score” value is reported as 0.0417. AATGACCA was tested, and the “PBM E-score” value was 0.0927. For AGTTCGAC, the “PBM E-score” value was -0.147. CGTGCACA was tested, and the “PBM E-score” value was -0.238. TCGGAAAA was tested, and the “PBM E-score” value was 0.275. In the case of GTGCTAAA, the “PBM E-score” value is reported as 0.00531. ACCACTAC was tested, and the “PBM E-score” value was -0.00992. In the case of CATAGCCG, the “PBM E-score” value is reported as -0.039. With CCCTCGAA the “PBM E-score” value was -0.111. In the case of GCAACTTA, the “PBM E-score” value is reported as 0.0563. In the case of ACGGGATA, the “PBM E-score” value is reported as 0.125. With ATAAGGTC the “PBM E-score” value was 0.0906. AGTACTTA was tested, and the “PBM E-score” value was -0.0601. With CCAGGGCA the “PBM E-score” value was -0.103. CCCAGGAG was tested, and the “PBM E-score” value was -0.169. In the case of AGCGAACT, the “PBM E-score” value is reported as 0.0273. For GACATATC, the “PBM E-score” value was 0.144. For CAGAACAA, the “PBM E-score” value was 0.238. CCTCGAGC was tested, and the “PBM E-score” value was 0.125. In the case of AGCCAACG, the “PBM E-score” value is reported as -0.0264. For AGTTAACA, the “PBM E-score” value was 0.0664. With GTAAACAC the “PBM E-score” value was 0.122. In the case of CACTTTCA, the “PBM E-score” value is reported as 0.0472. In the case of TATGAATA, the “PBM E-score” value is reported as 0.069. For AGTACCTA, the “PBM E-score” value was -0.215. With GCATGACC the “PBM E-score” value was -0.111. For GACCGTCA, the “PBM E-score” value was -0.198. AACAGCAT was tested, and the “PBM E-score” value was 0.0947. For ATAGGGCA, the “PBM E-score” value was -0.109. In the case of CCATACCG, the “PBM E-score” value is reported as 0.123. With GAAACTGC the “PBM E-score” value was 0.215. In the case of CGAGTTCC, the “PBM E-score” value is reported as -0.135. For TAATCATA, the “PBM E-score” value was 0.0727. With CCCCATTC the “PBM E-score” value was -0.0773. ATGCCACA was tested, and the “PBM E-score” value was 0.128. With GGAGGTAC the “PBM E-score” value was -0.0965. In the case of AAGGCCAC, the “PBM E-score” value is reported as -0.13. With AGGAGCGG the “PBM E-score” value was -0.258. With CCACCAGC the “PBM E-score” value was 0.0215. In the case of GACGCCGA, the “PBM E-score” value is reported as 0.15. GCCGGGAC was tested, and the “PBM E-score” value was -0.131. In the case of ACAATACA, the “PBM E-score” value is reported as 0.0363. With AGGGTGCG the “PBM E-score” value was -0.0329. In the case of CGGGTCCA, the “PBM E-score” value is reported as -0.238. In the case of CCGCGCGG, the “PBM E-score” value is reported as 0.321. With CACAAATA the “PBM E-score” value was 0.168. For GCGTCGCA, the “PBM E-score” value was 0.0271. With ACCAATAC the “PBM E-score” value was 0.099. In the case of TTAACAAA, the “PBM E-score” value is reported as 0.246. CGATACAA was tested, and the “PBM E-score” value was 0.0267.
